Test results reported in publication PMC4336329 (PLoS ONE, 2015).
The whole screen tested about 310,000 compounds, of which about 14,000 (4.5%) showed an effect of 50% or more. Effects have a minus sign here. Some of the results follow.

What follows are molecules tested against human ether-à-go-go-related gene (hERG) potassium channel (human, UniProt Q12809) (assay: primary screen, population patch clamp on CHO cells stably expressing hERG).
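Further: peak tail current of the secondary pulse compared with the same well before compound.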

Sequence of human ether-à-go-go-related gene (hERG) potassium channel (Q12809 whole entry, looked up): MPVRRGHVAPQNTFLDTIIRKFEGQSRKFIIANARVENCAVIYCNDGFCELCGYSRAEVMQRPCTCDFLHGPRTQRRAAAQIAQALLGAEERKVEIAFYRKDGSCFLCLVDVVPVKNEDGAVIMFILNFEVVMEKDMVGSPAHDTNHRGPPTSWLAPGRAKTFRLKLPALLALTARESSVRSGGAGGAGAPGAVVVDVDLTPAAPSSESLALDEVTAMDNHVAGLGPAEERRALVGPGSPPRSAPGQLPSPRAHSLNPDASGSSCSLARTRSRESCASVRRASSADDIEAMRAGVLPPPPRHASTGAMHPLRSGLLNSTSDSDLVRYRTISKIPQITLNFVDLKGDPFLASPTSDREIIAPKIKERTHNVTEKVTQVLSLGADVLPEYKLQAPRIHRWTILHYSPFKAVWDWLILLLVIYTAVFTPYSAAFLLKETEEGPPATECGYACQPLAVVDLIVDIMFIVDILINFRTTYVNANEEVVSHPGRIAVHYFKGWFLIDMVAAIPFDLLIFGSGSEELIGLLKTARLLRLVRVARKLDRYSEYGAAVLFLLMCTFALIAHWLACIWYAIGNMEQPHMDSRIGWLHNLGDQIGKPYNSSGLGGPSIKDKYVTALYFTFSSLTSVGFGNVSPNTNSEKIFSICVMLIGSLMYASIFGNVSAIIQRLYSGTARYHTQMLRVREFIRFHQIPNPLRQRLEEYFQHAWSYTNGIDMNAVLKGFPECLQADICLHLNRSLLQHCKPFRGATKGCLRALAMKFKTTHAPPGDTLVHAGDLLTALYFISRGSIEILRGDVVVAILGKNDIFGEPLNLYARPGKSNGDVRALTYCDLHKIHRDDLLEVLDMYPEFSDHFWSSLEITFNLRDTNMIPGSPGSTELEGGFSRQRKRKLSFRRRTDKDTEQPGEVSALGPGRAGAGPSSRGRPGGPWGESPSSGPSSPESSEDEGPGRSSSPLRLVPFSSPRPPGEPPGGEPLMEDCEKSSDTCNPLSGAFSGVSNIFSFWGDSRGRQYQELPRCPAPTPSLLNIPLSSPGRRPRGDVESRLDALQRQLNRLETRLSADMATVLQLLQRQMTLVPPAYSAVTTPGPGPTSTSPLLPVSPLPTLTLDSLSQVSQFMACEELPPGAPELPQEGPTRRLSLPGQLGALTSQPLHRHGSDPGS

Row | SMILES | hERG current change (%, negative = inhibition) at 10uM [%]
1 | CN1C(=O)/C(=C/c2coc3ccc(O)cc3c2=O)SC1=S | 14.9
2 | CCOC(=O)c1c(C)nn(-c2ncccc2NC(=O)CCC(=O)O)c1C | 14.9
3 | CC1CCCCN1C(=O)COC(=O)C1CCN(S(=O)(=O)c2ccc(Cl)c(C(F)(F)F)c2)CC1 (stereo not drawn) | -7.37
4 | Cc1cc(=O)oc(C)c1C(=O)N1CCN(Cc2ccc3c(c2)OCO3)CC1 | 8.2
5 | Brc1ccc(/C=N/Nc2ccccn2)cc1 | 11.4
6 | CCOC(=O)C1=C(C)NC(C)=C(C(=O)OCC)C1C(=O)OCC(=O)NC(C)C | 2.31
7 | CCCCCCOc1ccc(C(=O)n2cnc(N)n2)cc1 | 1.05
8 | COc1cccc(-c2cc(C(F)(F)F)n3nc(N)nc3n2)c1 | 0.86
9 | Nc1ncnc2c1ncn2CCOc1ccccc1 | 5.18
10 | Cc1cnc(C(=O)OC(C)C(=O)Nc2ccc(Oc3ccccc3)cc2)cn1 (stereo not drawn) | 6.07
11 | COc1ccccc1C(=O)NCC(c1cccs1)N1CCc2ccccc21 (stereo not drawn) | 1.26
12 | O=C(NCc1ccccc1)c1ccc[n+]([O-])c1 | 30.8
13 | COc1cc([N+](=O)[O-])ccc1N1C(=O)CC(Sc2nccc(C)n2)C1=O (stereo not drawn) | -18.3
14 | CCCCCc1c(C)nc(Nc2ccccc2)[nH]c1=O | 5.44
15 | Cc1cc(C)n(-c2n[nH]c(=O)c3ccccc23)n1 | 5.06
16 | COCc1c(C(=O)N/N=C(\C)c2ccncc2)nnn1-c1nonc1N | 7.11
17 | CCC(C(=O)NCc1cccs1)n1nc(C)n2c(cc3occc32)c1=O (stereo not drawn) | 0.0905
18 | COc1ccc(/C=N/Nc2ccc(C(F)(F)F)cc2[N+](=O)[O-])cc1O | 4.09
19 | CCN(CC(=O)NC1CCCC1)S(=O)(=O)c1ccc(C)cc1 | -27.1
20 | COCCSc1ccccc1C(=O)Nc1ccccc1C#N | -4.85
21 | Cc1cc(C)cc(NC(=O)C(OC(=O)Cn2cnc3c2c(=O)n(C)c(=O)n3C)c2ccccc2)c1 (stereo not drawn) | -69.7
22 | CCc1nc2c(cnn2-c2ccc(F)cc2)c(=O)n1-c1ccc(N2CCC(C)CC2)cc1 | 17.1

Row | SMILES | hERG current change (%, negative = inhibition) at 10uM [%]
23 | O=C(Nc1nc2c(s1)C(=O)CCC2)c1ccccc1 | 17.4
24 | COc1ccc(CCNC(=O)c2ccc(Cl)c(S(=O)(=O)N3CCCCCC3)c2)cc1 | -34.2
25 | C=CCc1c(C)nc(SCc2ccccc2)[nH]c1=O | 2.02
26 | CCCC(=O)Nc1ccc2c(c1)nc(CN1CCN(C(=O)OCC)CC1)n2C | 19.7
27 | O=C(NC1CCN(C(=O)Nc2ccccc2Cl)CC1)c1ccccc1 | 4.22
28 | Cc1ccc([N+](=O)[O-])cc1NC(=O)CN(C(=O)c1ccc(Cl)cc1)C1CCCCC1 | -15.1
29 | Cn1nnnc1SCCNC(=O)C1CCC(=O)N(Cc2ccc(Cl)cc2)C1 (stereo not drawn) | -15.2
30 | Cc1ccc(-n2c(=O)c3cc4c(=O)n(-c5ccc(C)c(C)c5)c(=O)c4c(C(=O)c4ccc(C(=O)O)cc4)c3c2=O)cc1C | 29.8
31 | Cc1ccc2c(c1)=C(c1sc(N(C)c3ccc(O)cc3)nc1O)C(=O)N=2 | 19.9
32 | COc1ccc(CCOC(=O)c2ccc(NC(=O)CC#N)cc2)cc1 | 23.8
33 | O=c1cnnc(NCc2ccccc2)[nH]1 | 14.9
34 | CCOC(=O)c1cn(Cc2ccccc2)c2cc(C)nn2c1=O | 3.41
35 | CCOC(=O)c1[nH]c2ccc(OC)cc2c1NC(=O)NC(C)C | 14.6
36 | CSc1ccc(CCNC(=O)c2ccc(CS(=O)Cc3ccc(Cl)cc3)o2)cc1 (stereo not drawn) | -15.1
37 | COc1ccc(-c2nc3c4ccccc4[nH]c(=O)n3n2)cc1 | 6.03
38 | Brc1ccc2c(c1)C(OC1CN3CCC1CC3)c1ccccc1CS2.O=C(O)/C=C\C(=O)O (stereo not drawn) | -71.4
39 | COc1ccc(NC(=S)NNC(=O)COc2ccc(Cl)cc2Cl)cc1 | 26.5
40 | COC(=O)C1=CN(C2CC2)C=C(C(=O)OC)C1c1ccc(C(F)(F)F)cc1 | -16
41 | O=C(CCCc1ccccc1)Nc1ccc(S(=O)(=O)N2CCOCC2)cc1 | -40.6
42 | COc1ccc(Cc2nnc(NS(=O)(=O)c3ccc(Cl)cc3)s2)cc1OC | 8.52
43 | c1ccc(-n2nnnc2-c2cnc(-c3cccnc3)nc2-c2cccs2)cc1 | -10.6
44 | Cc1ccc(S(=O)(=O)NC(C)(C)C)cc1C(=O)OCC(=O)N1CCCC1=O | -2.21

Row | SMILES | hERG current change (%, negative = inhibition) at 10uM [%]
45 | CCCCCC(=O)NNC(=O)Nc1ccccc1 | 5.05
46 | CC(C)CNC(=O)c1c(N)n(Cc2ccc3c(c2)OCO3)c2nc3ccccc3nc12 | 7.61
47 | O=C(c1cc2nc(-c3cccs3)cc(C(F)(F)F)n2n1)N1CCCc2ccccc21 | 3.7
48 | O=C(O)c1ccc(N2CCCS2(=O)=O)cc1 | 15.3
49 | COc1ccccc1-c1ccc(Nc2cccc(C(C)=O)c2)nn1 | 3.77
50 | CC(NC(=O)c1cccs1)C(S)c1ccccc1 (stereo not drawn) | 0.421
51 | Cc1ccc(-c2cc(-c3ccccc3Cl)[nH]n2)c(O)c1 | -9.2
52 | O=C(CSc1nc2ccccc2n1Cc1ccccc1Cl)N/N=C/c1ccccc1C(=O)O | -0.999
53 | O=C(O)CCCN1C(=O)/C(=C/C=C/c2ccco2)SC1=S | 24.4
54 | CCC(=O)N1CCN(c2ccccc2NC(=O)c2cccs2)CC1 | -50.4
55 | CCCCC1(C)NC(=O)c2c(C)sc(C(=O)OCC)c2N1 (stereo not drawn) | 4.17
56 | COc1c(F)c(F)c(C(=O)O)c(Nc2cccc(C)c2)c1F | 23.3
57 | COCCN1C(=S)N[C@@H](c2cccc(F)c2)C(C(=O)OC)=C1C | -15.8
58 | COc1ccc(OC)c(S(=O)(=O)N(C)CC(=O)Nc2ccc3c(c2)OCCO3)c1 | 5.37
59 | CCOc1ccc(N(C(=O)c2snc(C(N)=O)c2N)C(C(=O)NCC2CCCO2)c2c[nH]c3ccccc23)cc1 (stereo not drawn) | 14
60 | CCOc1ccc(NC(=O)N(CCC(C)C)C2CCN(C(C)=O)CC2)cc1 | -9.87
61 | Cc1cccc(N2CCN(S(=O)(=O)c3cn(C)cn3)CC2)c1C | 11.6
62 | Cc1cc(OCC(=O)N2CCN(c3ccccc3)CC2)c2c(C)c(C)c(=O)oc2c1 | 23.4
63 | Cc1ccc(-c2cc(C(=O)Nc3nccs3)c3ccccc3n2)c(C)c1 | 12.8
64 | CC(C)c1nnc(NC(=O)CCS(=O)(=O)Cc2ccccc2)s1 | 11
65 | O=C(N/N=C/c1ccccn1)C1CC1 | -69.4
66 | CCOc1ccc(NC(=O)CC2C(=O)NCCN2C(=O)Nc2ccccc2)cc1 (stereo not drawn) | 0.493

Row | SMILES | hERG current change (%, negative = inhibition) at 10uM [%]
67 | COc1cc(SC)ccc1C(=O)NCCCOC(C)C | 1.85
68 | Cc1cc(NC(=O)CSc2nnc(-c3ccncc3)n2N)ccc1Br | -16.6
69 | COC(=O)C1CCN(C(=O)COc2ccc(N(C)S(=O)(=O)c3ccc(C)cc3)cc2)CC1 | -33.8
70 | O=C(CCNC(=O)c1ccc(Br)cc1)Nc1cccc(S(=O)(=O)N2CCCCC2)c1 | -36.1
71 | O=C(COC(=O)c1ccc([N+](=O)[O-])s1)Nc1ccc(F)cc1 | -12.2
72 | CCN(CC)CCNC(=O)c1ccc(NC(=O)c2ccc(COc3ccccc3)cc2)cc1 | 13.2
73 | CC(/C=C/c1ccccc1)=N\NC(=O)c1ccncc1 | -28
74 | Cc1ccc(C)c(S(=O)(=O)N2CCCOC2CNC(=O)C(=O)NCc2ccncc2)c1 (stereo not drawn) | 0.734
75 | CCOC(=O)N1CCC(Nc2c(N3CCN(c4cc(Cl)ccc4C)CC3)c(=O)c2=O)CC1 | -80.4
76 | CC(C)C[C@H](NC(=O)C1CC(=O)N(c2ccc3c(c2)OCO3)C1)C(=O)NC1CCCC1 (stereo partly drawn) | -0.704
77 | CC(=O)C1C(=O)c2c(cccc2[N+](=O)[O-])C1=Nc1ccc(S(N)(=O)=O)cc1 (stereo not drawn) | -7.76
78 | Cl.c1cncc(CNC2CCCCC2)c1 | 16
79 | NC(=O)c1ccccc1NS(=O)(=O)c1ccc2c(c1)OCCO2 | 0.161
80 | COc1ccc(CCCc2n[nH]c(=S)o2)c(C)c1 | 17.5
81 | Cc1c(N=c2c(=O)c3ccccc3c2=O)c(=O)n(-c2ccccc2)n1C | -11.8
82 | COc1ccc(S(=O)(=O)NCCCCOc2ccc(Cl)cc2)cc1 | 9.11
83 | CC(=O)Nc1ccc(S(=O)(=O)N2c3ccccc3C(C)=CC2(C)C)cc1 | -20.1
84 | O=C(O)c1cccc(S(=O)(=O)Nc2ccccc2C(=O)NCCc2ccccc2)c1 | 24.9
85 | O=C(Nc1ccc(OCc2ccccc2)cc1)c1cccnc1 | 10.7
86 | COc1ccc(C(=O)NC(=S)Nc2ccc(S(=O)(=O)Nc3cc(OC)ncn3)cc2)cc1 | 15.4
87 | CC(C)N1CCc2c(sc(NC(=O)c3ccc(S(=O)(=O)N4CCCCC4C)cc3)c2C(N)=O)C1 (stereo not drawn) | -43.6
